# Assay results from PubChem BioAssay AID1452 (National Center for Advancing Translational Sciences (NCATS), 2008).
# Screen size: about 150,000 compounds; about 190 (0.13%) were called active. Inconclusive results (about 2%) are left out. The call rests on the fitted dose curve; in most records, active means well fitted inhibition curve with a large enough effect; inconclusive means small, poorly fitted or top-dose-only effect; inactive means flat fitted curve, though single readings scatter. The list shows a part of the results, in another mix than the full data.
# Molecular target: Polyunsaturated fatty acid lipoxygenase ALOX12 (Homo sapiens) (UniProt P18054)
# Sequence of UniProt P18054 (P18054 whole entry, looked up): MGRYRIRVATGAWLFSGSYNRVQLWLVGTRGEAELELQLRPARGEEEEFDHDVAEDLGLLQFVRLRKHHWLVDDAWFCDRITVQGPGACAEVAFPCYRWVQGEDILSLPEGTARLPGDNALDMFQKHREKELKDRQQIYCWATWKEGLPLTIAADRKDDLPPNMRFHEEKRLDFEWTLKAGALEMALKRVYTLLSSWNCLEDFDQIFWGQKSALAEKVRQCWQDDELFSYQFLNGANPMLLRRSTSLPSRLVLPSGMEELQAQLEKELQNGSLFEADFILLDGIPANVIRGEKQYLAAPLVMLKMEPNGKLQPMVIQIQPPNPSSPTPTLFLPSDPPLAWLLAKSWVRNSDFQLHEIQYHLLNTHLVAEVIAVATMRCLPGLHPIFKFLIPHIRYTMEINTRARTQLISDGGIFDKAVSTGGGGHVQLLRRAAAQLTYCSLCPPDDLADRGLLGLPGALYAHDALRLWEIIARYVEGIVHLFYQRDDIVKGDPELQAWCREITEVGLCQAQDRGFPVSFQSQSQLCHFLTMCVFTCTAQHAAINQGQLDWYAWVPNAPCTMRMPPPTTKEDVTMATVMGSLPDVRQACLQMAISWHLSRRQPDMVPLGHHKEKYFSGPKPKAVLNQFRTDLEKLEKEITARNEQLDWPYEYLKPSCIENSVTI
# Assay: qHTS Assay for Inhibitors of 12-hLO (12-human lipoxygenase); further: nearly all actives have a fitted effect of over 55% in size
# Settings: purified 12-hLO, xylenol orange hydroperoxide absorbance; series mostly up to 57.1 µM; activity change, negative = inhibition: at the top concentration
# Description: Assay Provider: Holman, T.R., University of California, Santa Cruz Screening Center PI: Austin, C.P. Screening Center: NIH Chemical Genomics Center [NCGC] Human lipoxygenase 12hLO is a member of the closely related lipoxygenase family of enzymes which catalyze the site-specific oxidation of arachidonic acid to various hormone precursor molecules and as such is a candidate for drug development in a variety of disease areas, such as cancer and inflammation. Inhibition of 12hLO activity was screened by utilizing arachidonic acid as a substrate. The extent of hydroperoxide product formation was measured by a secondary chromogenic reaction in which xylenol orange (XO, Sigma-Aldrich, cat. number 39,818-7) reacts with the ferric ions produced from the reaction between the hydroperoxide and ferrous ions. The Fe(III)-XO complex is characterized with red-shifted absorbance at 560 nm. A purified preparation of human 12hLO was supplied by Professor Ted Holman, University of California, Santa Cruz.
# Assay Protocol: Buffer: 25 mM Hepes pH 7.0, 0.01% Triton X-100. Reagents/Controls: Buffer in columns 3 and 4 as negative control (no enzyme). Substrate solution: 40 uM arachidonic acid (Sigma-Aldrich, St. Louis, MO) final concentration dispensed throughout the plate. Enzyme: 150 nM 12hLO final concentration in columns 1, 2, 5-48. Column 1 is neutral (100% activity). Column 2 contained pin-transferred titration of NDGA (nordihidroguaiaretic acid, Sigma-Aldrich, N 5023, top concentration 20 mM in DMSO, then 1:3 dilution in duplicate). (Dilution factor: 23 nL into 4 uL.) Chromogenic detection reagent (divalent iron/xylenol orange, Fe-XO): 200 uM xylenol orange plus 300 uM ferrous ammonium sulfate prepared freshly in 50 mM sulfuric acid. Assay Steps: Three uL of enzyme were dispensed to 1536-well Greiner black clear bottom plates. Compounds and controls (23 nL) were transferred via Kalypsys PinTool. The plates were incubated for 15 min at room temperature, and then 1 uL of substrate solution was added to start the reaction. After room temperature incubation for 30 minutes, 4 uL of Fe-XO solution was added to each well and the plates were incubated for 30 min. The absorbance at 405 and 573 nm were measured using ViewLux (Perkin-Elmer) High-throughput CCD imager and absorbance protocol settings. The 573-to-405 absorbance ratio was used to compute reaction progress.
# On the % scale 0 is the no-effect control and ±100 the full control effect; potency means the concentration at half of the fitted maximal effect.
SMILES,"activity change, negative = inhibition",Potency
CCCCc1ccc(-c2csc(/C(C#N)=C/c3ccc(C)o3)n2)cc1,inactive: -6.49%,–
O=C(Nc1ccncc1)c1cncc(Br)c1,inactive: 35.7%,–
N#Cc1nc(-c2ccccc2)oc1NCCN1CCCCC1,inactive: 20.2%,–
Cc1ccc(-c2cc(-c3ccc(Cl)cc3)c(C#N)c(N)n2)o1,–,active: 11.2 µM
CN1CCC[C@@H]1c1cccnc1,inactive: 4.35%,–
CC(NCCC(c1ccccc1)c1ccccc1)c1ccccc1 (stereo unspecified),inactive: -15.3%,–
Cn1cc(/C(Cc2ccccc2)=N\O)c2ccccc21,inactive: 31.3%,–
CC(C)COc1ccc(CSCCNC(=S)Nc2ccccc2)cc1,–,active: 28.2 µM
CC1CCc2nc(NC(=O)Nc3ccc4c(c3)OCO4)sc2C1 (stereo unspecified),inactive: 31.8%,–
O=c1c(O)c(-c2cc(O)c(O)c(O)c2)oc2cc(O)cc(O)c12,–,inactive
COc1ccc(-n2c(COc3cccc(C)c3)nnc2SCC(=O)NCc2ccco2)cc1,inactive: 3.9%,–
CN1CCCC1c1cccnc1 (stereo unspecified),inactive: -1.86%,–
O=C(O)CC[C@@H](C(=O)O)N1C(=O)c2ccccc2C1=O,inactive: -2.19% [at 11.4 µM],–
c1ccc(C2CN3CCSC3=N2)cc1 (stereo unspecified),inactive: -1.38%,–
C/C(=N\NC(=S)NCCc1ccccc1)c1ccc(C)cc1,–,active: 14.1 µM
Cc1ccc(NCc2nnc(SCC(=O)NCCc3ccccc3)n2C)cc1,inactive: 37.9%,–
CN(C)CCCN1c2ccccc2CCc2ccc(Cl)cc21,–,inactive
C[C@H](NCCC(c1ccccc1)c1ccccc1)c1ccccc1,inactive: -14.2% [at 25.6 µM],–
O=C1c2c(O)cc(O)cc2OC(c2ccc(O)c(O)c2)C1O (stereo unspecified),inactive: -8.43%,–

SMILES,"activity change, negative = inhibition",Potency
O=C(NCc1ccccc1)c1ccc(C2SCC(=O)N2Cc2ccccc2)cc1 (stereo unspecified),inactive: 46.5%,–
CN1CCc2cccc3c2C1Cc1ccc(O)c(O)c1-3 (stereo unspecified),inactive: -6.2%,–
Cn1c(SCC(=O)N/N=C/C=C/c2ccco2)nc2ccccc21,inactive: -1.92%,–
OC1(c2cccc(C(F)(F)F)c2)CCN(c2ncnc3c2[nH]c2ccc(F)cc23)CC1,–,active: 17.8 µM
Cc1ccc2c(c1)CC1(CN2C)C(=O)OC2(CCCCC2)OC1=O,inactive: 39.9%,–
COc1ccc(NS(=O)(=O)c2ccc(NC(=S)NC(=O)CC(C)C)cc2)cc1,–,active: 15.8 µM
NC(=O)C1CCN(Cc2nc3cc(Cl)ccc3c(=O)[nH]2)CC1,inactive: -14.8%,–
O=C1CCC(=O)N1OCCCCOc1ccccc1,inactive: 32.5%,–
CN(Cc1cnc2nc(N)nc(N)c2n1)c1ccc(C(=O)N[C@H](CCC(=O)O)C(=O)O)cc1,inactive: 1.62% [at 25.6 µM],–
O=C(Nc1ccccc1)c1ccc(NCC2CCCO2)c(S(=O)(=O)N2CCOCC2)c1 (stereo unspecified),inactive: 30.3%,–
Nc1ccccc1C(=O)/C=C/c1ccc2c(c1)OCO2,inactive: 2.4%,–
O=c1c(-c2ccccc2)coc2cc(O)cc(O)c12,–,active: 11.2 µM
CCc1cccc2c(C(=O)CSc3nncn3-c3ccccc3OC)c[nH]c12,inactive: 19.6%,–
C=CCN1C(=O)/C(=C\c2ccco2)C(C(=O)OC)=C1C,inactive: 26.6%,–
Clc1ccc(-n2nnnc2-c2cnc(-c3ccccn3)nc2-c2cccs2)cc1,inactive: 56.1%,–
NC(Cc1cc(I)c(Oc2ccc(O)c(I)c2)c(I)c1)C(=O)O (stereo unspecified),inactive: -7.76%,–
N#C/C(=C\c1ccc(O)c(O)c1)C(=O)NCCCc1ccccc1,inactive: -27.3%,–
CC(=O)N1CCN(c2ccc(NCc3ccc(C)cc3)cc2)CC1,–,active: 17.8 µM
Cc1cc(C(=O)N[C@H](c2ccccc2)[C@@]2(C)C[C@@H]2[C@@H](C)C(=O)Nc2ccc3ccccc3c2)n(C)n1,–,inactive

SMILES,"activity change, negative = inhibition",Potency
COc1ccc(-c2cc(C(=O)N3CCN(Cc4ccccc4)CC3)no2)cc1OC,inactive: 5.45%,–
O=C(Cc1ccccc1)N1CCC(C(=O)N2CCN(c3ccc(F)cc3)CC2)CC1,inactive: -3.42%,–
Cc1cc(C)nc(NC2=NCC(=O)N2c2ccccc2)n1,inactive: 32%,–
CCN(CC)C(=S)SSC(=S)N(CC)CC,–,inactive
Cc1cc(C)n(-c2nc(NCCC(C)C)c3c4c(sc3n2)COC(C)(C)C4)n1,inactive: 38.2%,–
COCC(=O)Nc1ccc(Nc2ccccc2)cc1,inactive: -1.62%,–
O=C(CCCCCCCC(=O)NCC1CCCO1)NCC1CCCO1 (stereo unspecified),inactive: 30.3%,–
CN1CCc2c(sc3c2c(NCc2ccco2)nc2nnnn23)C1,inactive: 45.9%,–
COc1cc(C2Oc3cc(C4Oc5cc(O)cc(O)c5C(=O)C4O)ccc3OC2CO)ccc1O (stereo unspecified),inactive: -12%,–
CCOC(=O)c1nnc(-c2ccc(C)cc2)nc1Sc1cccc(Cl)c1,inactive: 30.9%,–
CCCCCC#CCC#CCC#CCC#CCCCC(=O)O,inactive: -29.4%,–
O=C(O)c1cc(O)c2c(c1)C(=O)c1cccc(O)c1C2=O,inactive: -0.624%,–
COc1ccccc1N1CCN(CCCCN2C(=O)c3ccccc3C2=O)CC1,inactive: -11.2%,–
CNC[C@H](O)c1ccc(O)c(O)c1,–,inactive
S=C(NCCc1ccc(Cl)cc1)Nc1ccc(Cl)cc1Cl,–,active: 11.2 µM
N#C/C(=C\c1c[nH]c2ccccc12)C(=O)c1ccc(O)c(O)c1,–,active: 3.98 µM
S=C(Nc1ccc(Oc2ccc(NC(=S)NC3CCCCC3)cc2)cc1)NC1CCCCC1,–,active: 1.26 µM
CCc1nnc(NS(=O)(=O)c2ccc(N=Cc3c(C)[nH]n(-c4cccc(Cl)c4)c3=O)cc2)s1,inactive: 22.1%,–
